The supplement of paper PMC11417369
± gives the standard deviation of the averaged measurements. This is one part of the list.

Test system: PfAP2-G AP2 domain (GST-tagged)
Experiment: gcPBM binding intensity (ln(normalized median fluorescence intensity)); higher = stronger DNA binding
In short: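 DNA-binding domains from P. falciparum, fused to GST and produced in E. coli, were put on an Agilent 4 × 180k double-stranded probe array for 1 h in 1× PBS holding 1% milk, 0.2 mg/ml BSA, 0.5% salmon testes DNA and 0.03% Triton X-100. Probes were primer-extended, 36 bp long and drawn from intergenic genomic regions, with negative controls included. After Alexa488 anti-GST antibody detection and a 488 nm scan, binding intensity was set as the highest Masliner-normalised natural-log median intensity across replicate spots of either probe orientation.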

Sequence	gcPBM binding intensity (ln)
AAGGAATATGTATATACACACAGGTACATATATATA [CACACA_site441]	11.1 ± 0.74
AAAAAAAAAAAAAAATGTACATATATATATATATAT [XGTACX_site876]	11 ± 0.64
ATAATAATATTGTGTACACAATAATTTGTCAAATCA [CACACA_site6019]	11.7 ± 0.86
ACATATACAAGACACACACACAACGTTTTAATAAAT [CACACA_site7017]	10.2 ± 0.21
AATGGAAAAAAAAAAATAAATACAAATAAATACAAA [GTGCAC_negctrl_site407]	9.73 ± 0.13
TATTTTTTTCTTACTACACACATATATATGCTTTCC [CACACA_site4058]	10.08 ± 0.057
TTATATTATACATACACACCCATATAACATGTTTTT [CACACA_site6539]	10.08 ± 0.057
TCATTAATATTTCATAGTACAATTTTGTCTAATTGT [XGTACX_site6720]	10.6 ± 0.41
AAAAAAAAAAAAAGTAGTACATAATATGTTCCTCCT [XGTACX_site8356]	11.6 ± 1
TTTTGTTATGAGAGGGTGCTAATATTTGGATATAAA	9.99 ± 0.22
AAAAAAAGAAAAATTGCACACACTTATAAAAATATA [CACACA_site4014]	9.995 ± 0.078
TATAAAATAAGACATGCATGTTATACATATATATAT [TGCATGCA_site314]	10 ± 0.33
CCCCCCGTGTTATATACACACATAATCAAATAAAAT [CACACA_site4111]	11.8 ± 0.99
TCTTATTAAAATATTTATATAGGTAATCACAATATT [GTGCAC_negctrl_site568]	9.83 ± 0.042
AGAAATAAGAAATATACACACATATATATATATATA [CACACA_site2808]	10.3 ± 0.9
ATCATGTTATATATGTGTACATATATATGATATAAT [XGTACX_site991]	11.2 ± 0.81
TGAACAATGTATAATTGTACGCAACGAAAATAAAAA [XGTACX_site1559]	11.5 ± 0.86
ATATATAATTACACAAATAAAAAAATAAAATGAAAT [CACACA_negctrl_site1513]	9.825 ± 0.007
AGAATAAAAATACAAGCACACATGTATGAAATATAT [CACACA_site3213]	9.96 ± 0.24
ATTATAAATTAAAATACACACATATATACCTAATAT [CACACA_site5541]	9.98 ± 0.014
CAACGATACAAAAAAGGTACACATATATATATATAT [XGTACX_site8688]	11.3 ± 0.91
TATATAAAATTCTATTGTACATGTTATACGAAAGAA [XGTACX_site5711]	11 ± 0.71
CAATTTTCTAATGAAACATGCAAAATAAAATTTTAT [TGCATGCA_site13]	10.1 ± 0.12

Sequence	gcPBM binding intensity (ln)
TTCTTTTTAATGTCGGTGCAACTCCATAAAAACAAA [GTGCAC_site9488]	10.2 ± 0.37
GAGGATCATCAATTCACACACATAAAAATGAAGTTA [CACACA_site3078]	9.835 ± 0.035
TTTATATTTAAATGCATGCACTTTCTATTTTTTTTT [GTGCAC_site9959]	9.63 ± 0.25
GAATAAAGGAGAGGCACACATATATATATATATATA [CACACA_site2452]	10.1 ± 0.3
TATTTGATAAATTATACACACACAATATATATAAAA [CACACA_site8625]	10.04 ± 0.085
CAAATACATAGACACACACACATATACATATTTATA [CACACA_site7610]	10.1 ± 0.11
ACATAAAATAAATATACACACATATGTATATATCAT [CACACA_site7424]	9.965 ± 0.049
TTATTTTATAAATCGAAAACAAACAAAAAAAAGATA [XGTACX_negctrl_site178]	10.2 ± 0.27
TTGCTGTATTTATTTTGTACACATTTGGCATTATAT [XGTACX_site3408]	11.2 ± 0.73
AAAAAAAAAAGAAAGAGTACTTTTTCAATACATATA [XGTACX_site2468]	11.1 ± 0.7
AAGAAAAACAATACGTGTACCAAGCATCCTACTAAC [XGTACX_site6628]	10.9 ± 0.42
GACCATGTTAACAAAGCATGCATCTCTATATGTTTA [TGCATGCA_site358]	9.87 ± 0.26
TTTGTAGCACTTAAGAGTACAAAATGTATAAGATTT [XGTACX_site2321]	11.2 ± 0.81
TTAATATAATTAAAATGTACTTATTTGTAAACATTA [XGTACX_site6313]	11.1 ± 0.79
TAATTATAGGTATACACACACATACATTTACATAAC [CACACA_site7509]	10.3 ± 0.17
TTTTATTATTTTTGTTGTACAGTATACTGTATGATT [XGTACX_site5359]	11.4 ± 0.81
AAAAAAATATATATATATATATATATATTATATATG [GTGCAC_negctrl_site654]	9.565 ± 0.078
TTTAAAAAAAAAAAAAAAAAAAAAAAAAAAAATTTG [CACACA_negctrl_site1235]	9.55 ± 0.042
TAAAACAAAAAAAAGATGCACTATTTATTTTATTAT	9.885 ± 0.021
AACAAACACAGACACACACACACACTAATATGATTA [CACACA_site8770]	10.2 ± 0.25
ATATACTATTATGTGTGTACATAATAATTTATTATA [XGTACX_site3776]	11.3 ± 0.91
TCATACATTTTCCTTGCACACATTTATAATTAATGG [CACACA_site4511]	10.3 ± 0.16
ATATAAGAACAAAATTGTACATAAATATTTATATAA [XGTACX_site7404]	10.8 ± 0.54

Sequence	gcPBM binding intensity (ln)
TTATCACATTATTGCACACACATAAAGAAAAAAATA [CACACA_site2841]	10.4 ± 0.5
AATAAAAAGAAACACACACACACACCCATATATATA [CACACA_site3589]	10 ± 0.16
AAAGATACTTTCCTCAAACACACAAAACTATACAAC [CACACA_site1475]	10.3 ± 0.18
TGAGAAAAAAAGAATTGTACATATAAAATATAACAA [XGTACX_site3500]	10.9 ± 0.69
AAAAAAAAGGAAAATAAAAATAAAAAAAAATAATAA [XGTACX_negctrl_site601]	9.585 ± 0.064
TTATTTATACGCTATGAGTTTGATACAAACAATTAA [XGTACX_negctrl_site456]	10.2 ± 0.23
TTTTTACGGAATTAGAGAAAAGAAATAAAAAAAAAA [XGTACX_negctrl_site436]	9.91 ± 0.19
TTTATATTTATGTAGGTGCATTTGTTTACAACATAT [GTGCAC_site9511]	10.2 ± 0.2
TAGTTATCACATTGCACACACATTTCCTTTTACATT [CACACA_site7589]	10.225 ± 0.007
AATAAATTCATGATAGTGCAAAAATTATTTTTGTTA	9.725 ± 0.007
GCATAACCTTTATATTGTACATATACCTTTATTGTT [XGTACX_site6046]	10.9 ± 0.38
ACGTTAAAAACAAGTTGTACACAATAAATTATTCTT [XGTACX_site6321]	11.5 ± 0.92
TTTTTTGTTATTTTCCGTTTTTTTCCATTATAATTT [GTGCAC_negctrl_site461]	10.12 ± 0.085
TATTCAAAGAAAAACTGTACGTGTAGCCTACATCCT [XGTACX_site7707]	11.4 ± 0.93
ATTATCCATCAAAAGGTGCAAATTTTTAATTATAAA [GTGCAC_site9932]	10.1 ± 0.34
TGAGTCTTTTACATTGCACACACATTTCTTTCCTTT [CACACA_site8978]	10.1
AAAGATGATAAAATATGTACACACAGTTTATACATT [XGTACX_site8703]	11.4 ± 0.76
TCTTATATTATATTGTGTATTAAAATTTAACTTCAA [TGCATGCA_negctrl_site565]	9.99 ± 0.13
TTAAAGTTACATTCGACACACACATAACAACTAAAT [CACACA_site9130]	10.23 ± 0.085
ATATATATAAACAAAAGTACATATATAAATTCATTT [XGTACX_site3482]	11.1 ± 0.75
GTTTATATTTAATTTTTTTGTTTTTTTGTGTAATTC [XGTACX_negctrl_site194]	9.65 ± 0.2
TATTTATACTAATATGCATGTAATCGAAATACAGCT [TGCATGCA_site457]	9.685 ± 0.078
ACAAATAAATAAATATGTACTTAATTATATAATTGA [XGTACX_site5626]	11.2 ± 0.61

Sequence	gcPBM binding intensity (ln)
ATATATGTATATATGTACATGAATATATAAAGAAAA [CACACA_negctrl_site315]	11.1 ± 0.67
TAATTTTTTTTTTATAGTACACATATTAAAGAATTA [XGTACX_site2485]	11.3 ± 1
ATCTATTCACACTTTTAAAAATTAAATATATTATAT [TGCATGCA_negctrl_site610]	10.1 ± 0.18
AATAAAAAAAAAATATATATTTTTTTTTTTTTTTTT [CACACA_negctrl_site54]	10.07 ± 0.092
GGAATATTAATAAGAGTGCATTTTGTATTCAATATG	10.07 ± 0.092
TAGACTGGACATTAATGTACATAAATATATATGTAT [XGTACX_site7726]	11.1 ± 0.72
TATAAGAAAAATAACACACACATAAACATATATACA [CACACA_site2785]	10.09 ± 0.092
AAAAAAAAAATTCATTGTACATATATATATATATAT [XGTACX_site8346]	10.8 ± 0.75
GTATATATTAAAAAAAAAAAAAAAAAATTAAAATTA [CACACA_negctrl_site572]	9.35 ± 0.11
ATAAGAAGAAGAAAAACACACATATGTAGATATATA [CACACA_site7469]	9.79 ± 0.18
ATATATATATATATATGTACTTATTTATATATTTAT [XGTACX_site7811]	11.2 ± 0.79
TGGTTATTTATCTTTATTATAAATATTTACAAATAA [CACACA_negctrl_site1773]	9.94 ± 0.24
TAAATATTTAAATATTGTACTAGGTATAATTGAATA [XGTACX_site3604]	10.8 ± 0.59
ATAAAAATAAAAAACTGTACATACAAGATGTTACAG [XGTACX_site6690]	11 ± 0.71
ATGCTTCCTTAGGAATGTACACACATATATAATATG [XGTACX_site873]	11.2 ± 0.69
AAATAATATTTTACATGTACATAATAATTATTGGAT [XGTACX_site2783]	11.1 ± 0.51
TTATTGTACTTGCTCGCATGCAATAAAAATATATTA [TGCATGCA_site580]	11.2 ± 1.1
ATTATTAATAATTGTGTGCACAAATATTTATATGCT	10.5 ± 0.37
ATATCAATATAAAGTACACACTATAGTATGTATTAT [CACACA_site5286]	11.6 ± 1.1
ATATTGTATTATCTTTATGTACCAAAAAAAAAAAAA [CACACA_negctrl_site1036]	10.9 ± 0.69
